Assay results from patent US5684151A, “1-arylsulphonyl, arylcarbonyl and 1-arylphosphonyl-3-phenyl-1,4,5,6-tetrahydropyridazines” (priority 1995, dated 1997).
At least one read-out could not be matched to a standard name with certainty. At least one compound was matched to its structure with a doubt left.

Target: GABAA receptor from rat brain
Assay: Central Nervous System Receptor (35S-TBPS) binding, GABAA receptor
Conditions: read-out: GABA: Binding affinity for the GABAA receptor from rat brain

| SMILES | IC50 [µM] |
| --- | --- |
| O=P(OC1CCCC1)(c1ccccc1)N1CCCC(c2ccc(Cl)c(Cl)c2)=N1 (stereo not shown) [Compound 257] | 2.9 |
| O=S(=O)(c1ccc(Br)cc1)N1CCCC(c2ccc(Cl)c(Cl)c2)=N1 [Compound 39, 3-(3,4-dichlorophenyl)-1-(4-bromobenzenesulphonyl)-1,4,5,6-tetrahydropyridazine] | 3.2 |
| S=C(c1ccc(Cl)c(Cl)c1)N1CCCC(c2ccccc2)=N1 [Compound 237, 1-(3,4-dichlorothiobenzoyl)-3-phenyl-1,4,5,6-tetrahydropyridazine] | 2.42 |
| COP(=O)(c1ccccc1)N1CCCC(c2ccc(Br)cc2)=N1 (stereo not shown) [Compound 260] | > 11 |
| COP(=O)(c1ccccc1)N1CCCC(c2ccc(F)cc2)=N1 (stereo not shown) [Compound 258] | 10 |
| COP(=O)(c1ccccc1)N1CCCC(c2ccccc2)=N1 (stereo not shown) [Compound 252] | > 11 |
| CCCCc1ccc(C2=NN(S(=O)(=O)c3ccc4ccccc4c3)CCC2)cc1 [Compound 72] | > 11 |
| CCCCc1ccc(C2=NN(P(=O)(OCC)c3ccccc3)CCC2)cc1 (stereo not shown) [Compound 263] | 0.73 |
| Cc1ccc(S(=O)(=O)N2CCCC(c3ccccc3)=N2)cc1 [Compound 2] | > 11 |
| CCOP(=O)(c1ccccc1)N1CCCC(c2ccc(F)cc2)=N1 (stereo not shown) [Compound 259] | 9 |
| CCCCc1ccc(C2=NN(S(=O)(=O)c3ccc(Cl)cc3)CCC2)cc1 [Compound 73] | 3.4 |
| COc1ccc(C(=O)N2CCCC(c3ccc(Cl)cc3)=N2)cc1 [Compound 194] | 10 |
| O=S(=O)(c1ccccc1)N1CCCC(c2ccc3ccccc3c2)=N1 [Compound 131] | > 11 |
| CCOP(=O)(c1ccccc1)N1CCCC(c2ccc(Cl)c(C(F)(F)F)c2)=N1 (stereo not shown) [Compound 262] | 1.1 |
| O=C(c1ccc(Cl)cc1)N1CCCC(c2ccc(Cl)cc2)=N1 [Compound 193] | > 11 |
| O=S(=O)(c1ccc(Cl)cc1)N1CCCC(c2ccc3c(c2)CCCC3)=N1 [Compound 88] | 1.08 |
| O=C(c1ccc(F)c(F)c1)N1CCCC(c2ccc3c(c2)CCCC3)=N1 [Compound 214] | 0.87 |
| CCCCc1ccc(C2=NN(S(=O)(=O)c3cc(Cl)ccc3Cl)CCC2)cc1 [Compound 69] | > 11 |
| O=S(=O)(c1ccc(C(F)(F)F)cc1)N1CCCC(c2ccc(Cl)c(C(F)(F)F)c2)=N1 [Compound 125, 3-(4-chloro-3-trifluoromethylphenyl)-1-(4-trifluoromethylbenzenesulphonyl)-1,4,5,6-tetrahydropyridazine] | 10 |
| O=S(=O)(c1ccc(I)cc1)N1CCCC(c2ccc(Cl)c(C(F)(F)F)c2)=N1 [Compound 1, 3-(4-Chloro-3-trifluoromethylphenyl)-1-(4-iodobenzenesulfonyl)-1,4,5,6-tetrahydropyridazine] | 8.7 |
| CC(C)OP(=O)(c1ccccc1)N1CCCC(c2ccc(Cl)c(Cl)c2)=N1 (stereo not shown) [Compound 256] | 1.4 |
| CCCCc1ccc(C2=NN(P(=O)(OC)c3ccccc3)CCC2)cc1 (stereo not shown) [Compound 251] | 0.5 |

| SMILES | IC50 [µM] |
| --- | --- |
| CCCCc1ccc(C2=NN(S(=O)(=O)c3ccc(I)cc3)CCC2)cc1 [Compound 71] | 0.77 |
| O=S(=O)(/C=C/c1ccc(Cl)cc1)N1CCCC(c2ccc(Cl)c(Cl)c2)=N1 [Compound 170] | > 11 |
| CCCCc1ccc(C2=NN(S(=O)(=O)c3ccccc3)CCC2)cc1 [Compound 76] | 1.1 |
| O=S(=O)(/C=C/c1ccccc1)N1CCCC(c2ccc3c(c2)CCCC3)=N1 [Compound 176] | > 11 |
| O=S(=O)(c1ccc(Cl)cc1)N1CCCC(c2ccc(-c3ccccc3)cc2)=N1 [Compound 84] | > 11 |
| O=S(=O)(c1ccc2ccccc2c1)N1CCCC(c2ccc3ccccc3c2)=N1 [Compound 132] | > 11 |
| CCOP(=O)(c1ccccc1)N1CCCC(c2ccccc2)=N1 (stereo not shown) [Compound 253] | > 11 |
| CCCCc1ccc(C2=NN(C(=O)c3ccc(Cl)c(Cl)c3)CCC2)cc1 [Compound 231] | 0.3 |
| CCCCc1ccc(C2=NN(S(=O)(=O)c3ccc(C)cc3)CCC2)cc1 [Compound 74] | 2.2 |
| O=S(=O)(c1ccccc1)N1CCCC(c2ccc(-c3ccccc3)cc2)=N1 [Compound 86] | > 11 |
| COc1ccc(C2=NN(P(=O)(OC)c3ccccc3)CCC2)cc1 (stereo not shown) [Compound 264] | 6.4 |
| COc1ccc(C(=O)N2CCCC(c3ccc(OC)cc3)=N2)cc1 [Compound 182] | > 11 |
| O=S(=O)(c1ccc(Cl)cc1)N1CCCC(c2ccc(Cl)c(Cl)c2)=N1 [Compound 12, 3-(3,4-dichlorophenyl)-1-(4-chlorobenzenesulphonyl)-1,4,5,6-tetrahydropyridazine] | 0.7 |
| COc1ccc(C2=NN(C(=O)c3ccc(Cl)cc3)CCC2)cc1 [Compound 184] | > 11 |
| CCCCc1ccc(C2=NN(S(=O)(=O)c3cccc([N+](=O)[O-])c3)CCC2)cc1 [Compound 70] | > 11 |
| COc1ccc(C2=NN(S(=O)(=O)c3ccccc3)CCC2)cc1 [Compound 64] | > 11 |
| O=S(=O)(c1ccccc1)N1CCCC(c2ccc3c(c2)CCCC3)=N1 [Compound 90] | > 11 |
| COP(=O)(c1ccccc1)N1CCCC(c2ccc(Cl)c(C(F)(F)F)c2)=N1 (stereo not shown) [Compound 261] | 6.6 |
| CCCCc1ccc(C2=NN(S(=O)(=O)c3ccc(CCCC)cc3)CCC2)cc1 [Compound 75] | 0.21 |
| CCOP(=O)(c1ccccc1)N1CCCC(c2ccc(Cl)c(Cl)c2)=N1 (stereo not shown) [Compound 255] | 1.05 |
| COc1ccc(C(=S)N2CCCC(c3ccccc3)=N2)cc1 [Compound 240] | 10 |
